Data: the supplement of paper PMC10126150
Values marked as one replicate rest on one cluster of the flow cell; about a third of the high ones do not repeat.

Tested on: ATP
Experiment: switch fluorescence ratio, 500 uM ATP over buffer (Cy3 cluster intensity, sum of 5 cycles each) (fold (ratio)); higher = stronger signal-on switching upon ATP binding; sequences stand for … in TCGTCGGCAGCGTCAGATGTGTATAAGAGACAGTTTTTTTTTTTTTTTTTTTTTTTTT…TC
Details: aptamer strand: ATP DNA aptamer (quencher-CACCTGGGGGAGTATTGCGGAGGAAGG + anchor), 100 nM annealed; ATP concentration: 500 uM; one replicate
Method in brief: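 Switching-strand clusters labelled with Cy3 on a modified Illumina MiSeq flow-cell were annealed to 100 nM quencher-labelled ATP aptamer, imaged in selection buffer, and re-imaged after 15 min with 500 uM ATP at 22 °C. This was done over five cycles with NaOH stripping and re-annealing in between. The fluorescence ratio is summed target-cycle over summed buffer-cycle Cy3 intensity per cluster, averaged per switch-domain sequence, excluding clusters outside 100-1000 RFU.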
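Also: ATP exposure 15 min at 22 °C before imaging.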

| Sequence | switch fluorescence ratio |
| --- | --- |
| GTGTAGAGTG | 0.957 |
| TGGGGATCAT | 1 |
| TCGTATTCGT | 0.96 |
| TGACTAGCCG | 1.04 |
| TTCTATTAGC | 0.987 |
| TAGAGAAATG | 0.959 |
| ACTTTAGTAT | 0.961 |
| CGCTCTGAAT | 0.999 |
| ATGGTGATTC | 1.03 |
| CTTTACACGC | 1.09 |
| TATTGCCTTT | 1.05 |
| AGATTAGGT | 1.06 |
| CGATGGTTA | 0.971 |
| AAGTGGACGA | 0.986 |
| CTAATTGGGT | 1.02 |
| CACCAATGCT | 1.52 |
| GGGAGACTGA | 0.984 |
| GGAAGGCTAG | 0.954 |
| TTGGATAGCT | 1.01 |
| AATTGGGGAA | 0.974 |
| GTGCAGAGCA | 0.999 |
| ACACATCTAC | 1.23 |
| GTAGGGTTGG | 0.969 |
| GGTTGGGCGC | 1.01 |
| CTGTGTGCGT | 0.993 |
| CCCTGATCAT | 0.982 |

| Sequence | switch fluorescence ratio |
| --- | --- |
| TGTCGGCGC | 1.01 |
| TTCGGGCGC | 0.995 |
| GCTTATGCAG | 0.969 |
| AACGTTGACC | 1.2 |
| GCTGGGAGCA | 0.978 |
| GCAAATCATT | 0.998 |
| CAGGCGTTGG | 0.949 |
| GTATCGATTC | 1.01 |
| CGCGGTGAGG | 0.981 |
| GTTCGCACGA | 1.05 |
| CCTAAAGCGG | 1.33 |
| GATATCTGGG | 0.995 |
| TACTGTTA | 1.06 |
| AGATGGGCTA | 1.01 |
| TGAAACAGCC | 1.05 |
| CACTCTCCGC | 3.35 |
| ACGTTTGATG | 1.04 |
| AAACTCGCTG | 1.06 |
| TCCTTTCTCA | 1.26 |
| AAACCGAAAT | 1.33 |
| GCATCTCGGC | 0.989 |
| CGGTAAGTTA | 0.989 |
| TGGAAGACCG | 1.01 |
| TCCTAAAAAT | 0.98 |
| CTACGTTCCG | 1.09 |
| TATTCGTTAA | 1.04 |

| Sequence | switch fluorescence ratio |
| --- | --- |
| ATTGAGACTT | 1.04 |
| GATTAACACC | 1.11 |
| CATCGATTGG | 0.977 |
| TTGATACGTT | 1.02 |
| ATTGGGATCT | 0.964 |
| GCTCGCCACA | 0.997 |
| CCCGTGCCTG | 1.11 |
| CAAAGAAACA | 0.98 |
| GACGATAGC | 1.13 |
| GTACGCAGAG | 1.27 |
| TTATAACGT | 0.997 |
| TACGCTCCGA | 1.05 |
| TTCCATGTAA | 1 |
| TACAGGATTA | 1.01 |
| CTGAGGGAC | 1.01 |
| GGTAGGAGTC | 0.975 |
| GGAGTAGTTG | 1.01 |
| ATCGTTTCAG | 0.952 |
| TTCGACAATT | 0.989 |
| TTCCTTGTGA | 1.03 |
| AGTGGGTGGA | 1.03 |
| ATACTACC | 1.38 |
| TCTTTTCCT | 1.05 |
| CACATAAGCA | 1.01 |
| CGAAGTTTC | 1.01 |
| GTGAGGTCAA | 1.05 |

| Sequence | switch fluorescence ratio |
| --- | --- |
| CCGGGATC | 2.55 |
| CAGCATAACG | 1.2 |
| AGCACTATGG | 1.08 |
| ACATATGGTC | 1.04 |
| ACAGAAATAG | 1.01 |
| TAACACTGCC | 1.16 |
| ATTTTGAAGT | 0.999 |
| AATCGATTCG | 1 |
| AAGGGCCCGA | 1.01 |
| TGACGTATCG | 0.986 |
| TGTTAAAAGC | 0.991 |
| AGGGTACAGC | 1.05 |
| TACCGGTACC | 1.07 |
| TGTCCTAGTG | 0.985 |
| GTGATCCCTG | 0.984 |
| CGGGTATGCA | 0.991 |
| CAATTGGCGG | 0.993 |
| GGTCGCGTTG | 1.02 |
| TCCGATCCGG | 1.09 |
| ACAGGTCGGC | 0.983 |
| TTGTAAGCTA | 1.29 |
| TCGTACCCGC | 1.34 |
| ACTCTATATC | 1.11 |
| CATCCTAGGA | 1.02 |
| TTTGGCGGCA | 1.03 |
| TAGGTTACTC | 1.06 |

| Sequence | switch fluorescence ratio |
| --- | --- |
| CGCTGCTGCG | 1.02 |
| TTTCGCTTTC | 1.04 |
| TTTTCACAGC | 1.06 |
| GTTTAGCGTC | 1 |
| ACCCTTTT | 1.2 |
| TCAGAGCGTG | 0.969 |
| TAGGTAGCTC | 1.02 |
| GTGGAGAACG | 1.01 |
| ACTGATTATG | 0.987 |
| AACTGTGCGA | 1.05 |
| ATCACTCGCA | 1.08 |
| TGTACCAGGG | 1.08 |
| ATGAAATAAC | 1.03 |
| TTAATACAA | 0.978 |
| TCGGTATCTG | 1.08 |
| TGGTTCGTTC | 1.01 |
| GGCGTAGTGG | 0.975 |
| GGTACACGTA | 1.04 |
| GCCTTTGTGG | 0.996 |
| GGGTTAGCGT | 1.02 |
| TACGTAGGAT | 1.07 |
| AAGGAGATTG | 0.992 |
| TTGCGGGGA | 1.01 |
| TCAGGGTATG | 0.999 |
| TCAAGCTAGA | 1.28 |
| TTTACGTAAG | 1.05 |

| Sequence | switch fluorescence ratio |
| --- | --- |
| AAGAAAATA | 0.959 |
| TAAAAGTTAC | 1.09 |
| TATAGACGGT | 0.951 |
| CAATCTAATT | 0.901 |
| TACGTCGACT | 1.04 |
| GTCCAGAAAA | 1.04 |
| TCGTGACGCG | 0.957 |
| GACCCAAGTC | 1.03 |
| CACCCACAGT | 1.53 |
| CCTGTTGAGG | 1.02 |
| TATAGGGCTG | 1.06 |
| GGCGATAGAG | 1.05 |
| CAGTTAACCC | 1 |
| TTGTTACCCC | 1.13 |
| TACGCTAAGC | 1.28 |
| GGCATTTTGG | 0.98 |
| GGCATCTTAA | 0.991 |
| ACGAGATTGG | 1.02 |
| GGGCACACTT | 1.01 |
| TGATTAAGGT | 1.03 |
| TTTCGCCGTA | 0.98 |
| GCGGACACAT | 1.01 |
| TTGTCCTTAG | 0.996 |
| AGTTGGACG | 1.05 |
| CCACAACTGT | 1.03 |
| AGAGGCGAGC | 0.952 |

| Sequence | switch fluorescence ratio |
| --- | --- |
| CGGCATTGAC | 1.65 |
| TTTCAACTGT | 1 |
| ACGAGCCCAG | 4.66 |
| GTCCCTAGTA | 0.994 |
| TACTGAAGAT | 1.03 |
| CATCTTCCCA | 1.05 |
| ATTTAGAGCT | 1.22 |
| ATTGAGAGGC | 0.992 |
| GCCGAGCTTA | 1.06 |
| AAGGCGCTAT | 1.01 |
| AACGATTGGA | 1 |
| AAACGATATC | 1.05 |
| GTCAACAGGT | 1.08 |
| TATAATGGGG | 0.983 |
| AATTTCGTAC | 1.01 |
| CAACCAAGTA | 1.03 |
| TGACGTGGAA | 1.06 |
| CGGCCTCTGG | 0.996 |
| GTGAAGCATT | 1.02 |
| GCAACGAGCG | 1.04 |
| GACAACAAAT | 1.07 |
| AATGCCAAAG | 0.992 |
| CTGAGTCGCG | 0.997 |
| GCTCGTGTA | 1.01 |
| TACCCCTACG | 1.42 |
| TTTCTGTGC | 0.988 |

| Sequence | switch fluorescence ratio |
| --- | --- |
| GTCGCCAGCG | 0.988 |
| TGCATAACTA | 1.03 |
| CCAGTTGTGT | 1.11 |
| GTTAGGGCTT | 0.976 |
| TTATATTCGG | 0.973 |
| TCTTTTAGGG | 1.01 |
| TTATACTCAA | 1.29 |
| TGGCACAACC | 1.06 |
| GATTGCAGGG | 0.908 |
| AATTATTGAT | 1.01 |
| AATGAAATTT | 1.04 |
| GAACGCGCCG | 1.06 |
| TTCTAGGTGC | 1.46 |
| AACGCAAGTA | 1.16 |
| GACCGTTAAT | 1.05 |
| GACATATTTC | 1.04 |
| CTTAAAAGTG | 0.955 |
| CGATACGCTT | 1.11 |
| GCGCGAGCAG | 1.01 |
